Laboratory results as given in PubChem BioAssay AID662 (National Center for Advancing Translational Sciences (NCATS), 2007).
About 1,800 (2.5%) of roughly 71,000 compounds were called active. The inconclusive results got no clear call from the source; some entries with a clear call stand among them for comparison. Calls follow the shape of the dose curve; as a rule, active = well fitted activation curve with a large enough effect in the signal ratio, with a control signal flat (not every such curve was filed as active); inconclusive = small, poorly fitted or top-dose-only effect, or effect the other way, or a change in a side signal; inactive = flat fitted curve, though single readings scatter; the % refers to the signal ratio. Potencies beside an inconclusive call are fits to weak or partial responses and may not hold up.

Assay: Cell signaling CRE-BLA (Fsk stim); as to activity change, negative = inhibition: % of control where 0% means no effect
Conditions: CHO CRE-bla reporter (cAMP response element driving beta-lactamase), forskolin EC10, beta-lactamase ratio; activity change, negative = inhibition: at 38.2 µM (top of the series) unless noted
How it was run: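 Cells were plated overnight at 37 °C, exposed to compound titrations plus EC10 NKH 477 for 3 h, then given CCF4 dye for 2 h at room temperature. Blue/green (460/530 nm) ratio was converted to %Activity and AC50 values calculated.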
Potency is read from the fitted curve at half-maximal effect; tags tell the direction and shape of the fitted curve.

SMILES | activity change, negative = inhibition | Potency
COc1ccc(C(=O)N2CCC(C(=O)NCc3ccccn3)CC2)cc1 | inconclusive: 75% | 
COc1cc(CCC(=O)N2CCN(c3ccc(N4CCOCC4)nn3)CC2)cc(OC)c1OC | inactive | 
CC(C)(C)n1ncc2c(=O)n(CC(=O)Nc3ccc(Cl)cc3)cnc21 | inconclusive: 19.7% | 
Cc1cc2nn(-c3ccccc3)nc2cc1NC(=O)c1cccs1 | inconclusive: -28.1% | 
Cc1ccc(-c2noc(C3CCCN(C(=O)c4c(F)cccc4F)C3)n2)cc1 (stereo unspecified) | inconclusive: 17.4% | 
Cc1nc2ccccc2c(=O)n1/N=C/c1ccc(O)cc1 | inconclusive: 19.8% | 
CCOC(=O)N1CCN(Cc2nc3c(c(=O)n(C)c(=O)n3C)n2Cc2cccc(C)c2)CC1 |  | inconclusive: 15.8 µM [rising, single point]
Clc1ccc(-c2nc(NCCN3CCOCC3)c3ccccc3n2)cc1 | inactive | 
O=C(Cn1c(=O)sc2ccccc21)NCc1ccco1 | inactive | 
Cc1cnn(-c2nc(-c3cccs3)cc(C(F)(F)F)n2)c1 |  | inconclusive: 15.8 µM [rising, partial curve]
Cc1ccc(NC(=O)CCn2cnc3ccccc3c2=O)cc1Cl | inconclusive: 27.9% | 
COc1cccc(Nc2ncc3nc(-c4cn(C)c5ccccc45)c(=O)n(C[C@H]4CCCO4)c3n2)c1 |  | inconclusive: 3.98 µM [rising, partial curve]
COc1ccc(/C=N/O)cc1COc1ccc(NC(C)=O)cc1 | inactive | 
COC(=O)CC(=O)CSc1nc2c(cc1C#N)CCCCC2 | inconclusive: 19.2% | 
Cc1ccc(SC(C)c2nc(-c3ccncc3)no2)cc1 (stereo unspecified) |  | inconclusive: 10 µM [rising, single point]
C=CCn1c(=O)[nH]c2cc(C(=O)N3CCN(c4ccc(C(C)=O)cc4)CC3)ccc2c1=O |  | inconclusive: 10 µM [rising, single point]
CCC(C)(C)n1nnnc1C(c1cc2ccc(OC)cc2[nH]c1=O)N1CCc2ccccc2C1 (stereo unspecified) | inconclusive: 27.5% | 
O=C(CN1C(=O)COc2ccccc21)NCCC1=CCCCC1 | inconclusive: -9.12% | 
O=C1NC(O)=NC1(c1ccccc1)c1ccccc1 | inactive | 
O=c1cc(-c2ccccc2)c2ccc(O)c(CN3CCCCC3)c2o1 | inactive | 
O=C(Nc1cccc2ccccc12)N1CCN(Cc2ccccc2)CC1 | inactive | 

SMILES | activity change, negative = inhibition | Potency
COCC(=O)N1CCC2(CCCN(C(=O)Nc3ccccc3)C2)CC1 | inactive | 
c1ccc(COc2ccc(Nc3ncnc4nc[nH]c34)cc2)cc1 |  | inconclusive: 12.6 µM [rising, partial curve]
CC(C)n1nnnc1SCC(=O)Nc1ccccc1N1CCOCC1 | inactive | 
Cc1cc(=O)oc2cc3c(cc12)OCCN3 |  | inconclusive: 10 µM [rising, partial curve]
Cc1ccc(S(=O)(=O)c2c(N)n(C)c3nc4ccccc4nc23)cc1 |  | inconclusive: 10 µM [rising, partial curve]
O=C(c1ccccc1)c1cccn1CC(=O)N1CCN(c2ccccc2)CC1 | inconclusive: -4.05% | 
c1ccc(CN2CCN(CCN3CCn4c3nc3ccccc34)CC2)cc1 | inactive | 
COCCn1c(-c2cc(OC)c(OC)c(OC)c2)nc2oc3ccccc3c(=O)c2c1=O |  | active: 2 µM
CC(=O)NCCn1c(SCc2ccccc2F)nc2ccccc2c1=O | inconclusive: 8.06% | 
CCNc1nc(OC)nc(Oc2ccc(=O)n(-c3ccccc3)n2)n1 |  | inconclusive: 10 µM [rising, partial curve]
CCn1c(SCC(=O)Nc2ccccc2F)nc2c(c1=O)SC(C)C2 (stereo unspecified) | inconclusive: 26.8% | 
CCOc1ccc(NC(=O)C2CC(C)=C(C)CC2C(=O)O)cc1 (stereo unspecified) | inconclusive: -26.3% [at 7.6 µM] | 
Cc1cc(C)n(-c2ccc(C(=O)OCc3nnc(-c4ccccc4)o3)cc2)n1 |  | inconclusive: 20 µM [falling, single point]
CC(C)CCn1c(Cl)nc2c1c(=O)n(C)c(=O)n2C |  | inconclusive: 12.6 µM [rising, single point]
S=c1[nH]c2ncccc2o1 | inconclusive: -2.33% | 
COC(=O)c1ccccc1NS(=O)(=O)c1cn(C)c(=O)n(C)c1=O | inconclusive: -8.25% | 
Cn1c(=O)c2c(-c3ccc(C(C)(C)C)cc3)n(N3CCOCC3)cc2n(C)c1=O | inconclusive: 0.45% | 
O=C(CSc1nc2cc(Cl)ccc2s1)c1ccco1 |  | inconclusive: 25.1 µM [rising, single point]
O=C1c2cc([N+](=O)[O-])ccc2-c2ccc3c4ccc5c6c(ccc(c7ccc1c2c73)c64)C(=O)c1cc([N+](=O)[O-])ccc1-5 | inactive: -2.58% [at 7.6 µM] | 
Cc1ccnc(NS(=O)(=O)c2ccc(N=CC3=C(O)CC(C)(C)CC3=O)cc2)n1 | inactive | 
CCC1(C)NC(=O)N(CC(=O)Nc2sc3c(c2C(N)=O)CCC3)C1=O (stereo unspecified) | inconclusive: -8.92% | 

SMILES | activity change, negative = inhibition | Potency
Cc1ccc(-c2nc3ncccn3c2NC2CCCC2)o1 | inconclusive: -27.1% | 
COC(=O)c1cn(CCOc2ccccc2)c2ccccc12 | inactive | 
CC(C)C[C@@H](CC(=O)N[C@@H](CCCN)CC(=O)N[C@@H]1CCCC[C@H]1C(=O)N[C@H](CC(=O)N[C@@H](CCC(=O)O)CC(=O)O)Cc1ccccc1)NC(=O)[C@@H]1CNCC[C@H]1N | inactive | 
CCOC(=O)c1sc(C)c2c(=O)n(CC)nnc12 |  | inconclusive: 10 µM [rising, single point]
CCOC(=O)c1c(C)[nH]c(C(=O)OCC(=O)N2CCc3ccccc32)c1C | inactive | 
COc1ccc(C(=O)CSc2nnc(CNc3ccc(C)cc3C)n2Cc2ccco2)cc1 | inconclusive: -17.7% | 
COC(=O)Cc1cc(=O)[nH]c(Nc2nc3ccccc3o2)n1 | inconclusive: 22.5% [at 7.6 µM] | 
COc1ccc(C(c2sc3nc(C)nn3c2O)N2CCC(O)CC2)cc1OC (stereo unspecified) |  | active: 3.16 µM
COc1cccc(-c2nc(CS(=O)(=O)CC(=O)NCCCN3CCc4ccccc4C3)c(C)o2)c1 | inconclusive: -18% | 
COC(=O)Cn1c(C)nc2c(sc3nc(C)cc(C)c32)c1=O |  | inconclusive: 12.6 µM [rising, partial curve]
O=C(CSc1nnc(-c2ccco2)o1)c1ccc(F)c(F)c1 | inconclusive: -15.7% | 
COc1ccc(C2C=C(c3ccccc3)Nc3ncnn32)cc1 (stereo unspecified) |  | inconclusive: 20 µM [falling, single point]
O=C(Nc1cccc(C(=O)N2CCCC2)c1)c1ccccc1 | inconclusive: -20.1% | 
CN1C[C@H](C(=O)N[C@]2(C)O[C@@]3(O)[C@H]4CCCN4C(=O)[C@@H](Cc4ccccc4)N3C2=O)C[C@H]2c3cccc4[nH]cc(c34)C[C@@H]21 |  | inconclusive: 20 µM [falling, partial curve, poor fit]
O=c1[nH]c2ccc(Cl)cc2c(-c2ccccc2)c1N1CCOCC1 |  | inconclusive: 12.6 µM [rising, single point]
Cc1ccc(C)c(S(=O)(=O)Nc2ccccc2C(=O)Nc2cc(C)on2)c1 | inconclusive: 40.6% | 
CCOc1ccc(S(=O)(=O)n2nnc3ccccc32)cc1C(C)C | inactive | 
CCN(CC)C(=O)C1CCCN(Cc2ccccc2C(F)(F)F)C1 (stereo unspecified) | inconclusive: 9.31% [at 7.6 µM] | 
Cc1conc1NC(c1cccs1)c1ccc2cccnc2c1O (stereo unspecified) |  | inconclusive: 7.94 µM [falling, partial curve]
CCc1ccccc1N1CC23C=CC(O2)C(C(=O)OC)C3C1=O (stereo unspecified) | inactive | 
O=C(NC1CCCCC1)C(c1cccs1)N(CC1CCCO1)C(=O)c1csnn1 (stereo unspecified) | inactive | 

SMILES | activity change, negative = inhibition | Potency
C=CC(=O)OCCCCCCOC(=O)C=C |  | inconclusive: 20 µM [falling, partial curve]
Cc1ccccc1-c1nccc(NCCN2CCOCC2)n1 | inactive | 
CCN(CCCNC(=O)CN(C)S(=O)(=O)c1cccc2nsnc12)c1ccccc1 | inconclusive: 9.49% | 
CN(C)c1nc(-c2ccoc2)nc2ccccc12 |  | active: 12.6 µM
CC(=O)Nc1nc(=S)ss1 | inactive | 
COc1ccc(CCNC(=O)c2cc(-c3ccccc3OC)on2)cc1OC | inconclusive: 6.51% | 
CN(C)Cc1cc(C(C)(C)C)cc(CN(C)C)c1O | inactive: -2.19% [at 7.6 µM] | 
Cc1ccsc1C1C=C(c2cccc(Br)c2)Nc2ncnn21 (stereo unspecified) |  | inconclusive: 25.1 µM [falling, single point]
CCOc1nc(-c2ccccc2)ccc1-c1noc(-c2cccnc2)n1 | inactive | 
O=C(CCc1nc(-c2ccccc2F)no1)NCCc1ccccc1Cl |  | inconclusive: 10 µM [falling, partial curve]
Cc1cccc(OCCC(=O)OCC(=O)N2CCc3ccccc32)c1 | inactive | 
O=C(NCCCN1CCOCC1)NC12CC3CC(CC(C3)C1)C2 |  | inconclusive: 5.01 µM [falling, single point]
O=C(c1ccncc1)N1CCC2(CC1)CCN(c1ccccn1)CC2 | inactive | 
c1ccc(CN(CC2=NCCN2)c2ccccc2)cc1 | inconclusive: -25% | 
O=C(NCC1CCCO1)c1sc(=S)n2c1[nH]c(=O)c1ccc(C(=O)N3CCCCC3)cc12 (stereo unspecified) | inconclusive: 14.5% | 
COC(=O)c1cc(OC)c(OC)c(OC)c1N |  | inconclusive: 3.16 µM [falling, single point]
O=C(Nc1ccc(Oc2ccc(NC(=O)C3CCCO3)cc2)cc1)C1CCCO1 (stereo unspecified) |  | inconclusive: 1 µM [rising, single point]
Cc1csc(NC(=O)CSc2nnc(-c3ccccn3)n2-c2ccc(C)c(C)c2)n1 |  | inconclusive: 10 µM [rising, partial curve]
